Test results as given in PubChem BioAssay AID1460 (National Center for Advancing Translational Sciences (NCATS), 2008).
Values joined by “and” are separate entries in the source; they are usually repeats but may differ in a detail not shown here. Equal values may be shown once. The whole screen tested about 270,000 compounds, of which about 5,800 (2.1%) were called active. This list was built around the results that the source calls inconclusive (neither active nor inactive); the mix of calls is not that of the screen. Calls follow the shape of the dose curve; as a rule, active = well fitted inhibition curve with a large enough effect; inconclusive = small, poorly fitted or top-dose-only effect; inactive = flat fitted curve, though single readings scatter. A potency beside an inconclusive call is a rough fit, not a confirmed value.

molecular target: Microtubule-associated protein tau (Homo sapiens) (UniProt P10636); assay: qHTS for Inhibitors of Tau Fibril Formation, Thioflavin T Binding; details: recombinant tau K18 P301L (four-repeat tau fragment), heparin-induced fibrillization, ThT fluorescence; series mostly up to 57.4 µM; also: nearly all actives have a fitted effect of over 55% in size
How it was run: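 Tau K18 P301L fragment (15 uM unlabeled plus 0.24 uM Alexa 594-labeled) in 100 mM sodium acetate pH 7 with compound, fibrillization induced by 20 uM heparin for 6 hr at 37 C. Thioflavin T (30 uM) added, fluorescence read after 1 hr (ex 450, em 510 nm).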
Potency is read from the fitted curve at half-maximal effect; tags tell the direction and shape of the fitted curve.

Sequence of UniProt P10636 (P10636 whole entry, looked up, the tested form may be a part): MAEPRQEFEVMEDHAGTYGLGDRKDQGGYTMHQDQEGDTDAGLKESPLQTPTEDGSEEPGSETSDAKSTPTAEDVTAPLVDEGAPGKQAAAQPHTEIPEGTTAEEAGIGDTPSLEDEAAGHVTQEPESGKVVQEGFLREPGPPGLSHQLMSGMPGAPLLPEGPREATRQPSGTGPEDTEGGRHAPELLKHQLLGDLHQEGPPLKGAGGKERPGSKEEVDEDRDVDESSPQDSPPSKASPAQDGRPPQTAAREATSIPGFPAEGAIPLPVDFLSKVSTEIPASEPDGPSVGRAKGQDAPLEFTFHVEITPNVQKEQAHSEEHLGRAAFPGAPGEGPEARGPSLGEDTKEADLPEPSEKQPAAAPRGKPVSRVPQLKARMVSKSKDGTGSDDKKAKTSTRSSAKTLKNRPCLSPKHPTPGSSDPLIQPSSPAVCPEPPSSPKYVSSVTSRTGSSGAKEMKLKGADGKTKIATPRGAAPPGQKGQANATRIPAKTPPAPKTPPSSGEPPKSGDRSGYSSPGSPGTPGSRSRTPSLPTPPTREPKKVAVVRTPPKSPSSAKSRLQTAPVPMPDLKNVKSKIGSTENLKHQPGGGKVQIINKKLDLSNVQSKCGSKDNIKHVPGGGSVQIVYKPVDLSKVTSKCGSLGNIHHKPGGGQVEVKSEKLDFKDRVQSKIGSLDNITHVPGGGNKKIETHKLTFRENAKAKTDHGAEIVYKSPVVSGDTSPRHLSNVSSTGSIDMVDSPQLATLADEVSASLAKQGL

`COc1cccc(CN(Cc2cccnc2)S(=O)(=O)c2ccc(-n3cnnn3)c(C)c2)c1` was tested. Which Potency did it give?
Its Potency is “inactive”.

How did the Potency turn out when `COc1cc(OC)cc(C(=O)Nc2ccc3nc(Nc4cccc(C(F)(F)F)c4)cc(C)c3c2)c1` was run?
The Potency was inconclusive: 10 µM [inhibitor, partial curve].

For `CC(=O)Nc1ccc(NCC(O)COc2ccccc2)cc1` (stereo not drawn), which Potency is on record?
Its Potency is inconclusive: 12.6 µM [inhibitor, partial curve].

How did the Potency turn out when `COc1ccc(-c2csc(N(C)C(=O)c3cccs3)n2)cc1` was run?
Its Potency is inconclusive: 0.794 µM [inhibitor, full curve].

With `Cc1cc(C(=O)N/N=C/C=C/c2ccc([N+](=O)[O-])cc2)n[nH]1` as the compound, how does the Potency read?
The Potency was active: 1.78 µM.

Which Potency does the source give for `COc1ccc(N2C(=O)/C(=C/c3ccc([N+](=O)[O-])cc3)C=C2c2ccccc2)cc1` here?
Its Potency is inconclusive: 8.91 µM [inhibitor, partial curve].

Which Potency does the source give for `COc1cc(NC(=O)Cc2cccs2)c(C(=O)O)cc1OC` here?
The Potency was “inactive”.

`O=C(NCC(c1ccc(Cl)cc1)N1CCCCC1)c1ccccc1F` (stereo not drawn) was tested. Which Potency did it give?
The Potency was “inactive”.

How did the Potency turn out when `Cc1cc(C)c(S(=O)(=O)/N=C2/C=C(SCC(=O)O)C(=O)c3ccccc32)cc1C` was run?
Its Potency is active: 7.08 µM.

For `CCC1CN(C(=O)Nc2ccc(Br)cc2F)c2ccccc2S1` (stereo not drawn), which Potency is on record?
The Potency was “inactive”.

Which Potency does the source give for `Cc1[nH]c2ccccc2c1C1(O)C(=O)N(Cc2ccccc2Cl)c2ccccc21` (stereo not drawn) here?
Its Potency is inconclusive: 14.1 µM [inhibitor, single point].

Which Potency does the source give for `CCNc1cc(N2CCCC2)ccc1[N+](=O)[O-]` here?
The Potency was active: 11.2 µM.

For `CC(C)Cc1csc(NC(=O)c2ccc(Br)cc2)c1C(=O)O`, which Potency is on record?
Its Potency is inconclusive: 17.8 µM [inhibitor, single point].

`O=C(COC(=O)c1cc(-c2ccc(Cl)s2)nc2ccccc12)NCc1ccco1` was tested. Which Potency did it give?
Its Potency is inconclusive: 25.1 µM [inhibitor, partial curve].

Which Potency does the source give for `COc1ccc(NC(=O)Cn2c(=O)n(-c3cccc(C(F)(F)F)c3)c(=O)c3sccc32)cc1` here?
The Potency was inconclusive: 20 µM [activator, single point].

With `COc1cccc2c1Oc1ncccc1N(c1ccc(C(=O)NCc3ccccc3Cl)s1)C2` as the compound, how does the Potency read?
The Potency was “inactive”.

For `O=C(CSc1nnc(-c2ccc(Cl)cc2)o1)Nc1ccc(F)cc1`, which Potency is on record?
The Potency was “inactive”.

`Fc1ccc(NC(=S)Nc2cccnc2)c(F)c1F` was tested. Which Potency did it give?
Its Potency is “inactive”.

For `O=C(CNc1cccc(C(F)(F)F)c1)N/N=C/c1cn(-c2ccccc2)nc1-c1ccccc1`, which Potency is on record?
The Potency was “inactive”.

With `Cc1cc2c(c(=O)o1)[C@H](O)[C@H]1O[C@@H]1C2=O` as the compound, how does the Potency read?
The Potency was inconclusive: 1.78 µM [inhibitor, partial curve].

For `O=C(CSc1nc2ccccc2s1)Nc1ccc(N2CCOCC2)c(Cl)c1`, which Potency is on record?
The Potency was inconclusive: 14.1 µM [inhibitor, partial curve].

Which Potency does the source give for `Cc1ccn2c(Nc3ccc4c(c3)OCCO4)c(-c3cccs3)nc2c1` here?
The Potency was inconclusive: 31.6 µM [inhibitor, partial curve].

With `CC(C)Cn1c(=O)c2ccccc2n2c(CCC(=O)N3CCN(c4ccccc4)CC3)nnc12` as the compound, how does the Potency read?
The Potency was inconclusive: 11.2 µM [inhibitor, partial curve].

`C=CCc1cccc(/C=N/NC(=O)CCCNc2ccc(C)cc2)c1O` was tested. Which Potency did it give?
Its Potency is inconclusive: 7.94 µM [inhibitor, partial curve, poor fit].

`COc1ccccc1Cn1c(=S)[nH]c2cc(C(=O)NCc3cccnc3)ccc2c1=O` was tested. Which Potency did it give?
Its Potency is “inactive”.

How did the Potency turn out when `CC1(C(=O)O)COC(c2ccc([N+](=O)[O-])cc2)OC1` (stereo not drawn) was run?
Its Potency is “inactive”.

`O=C(CSCc1ccco1)c1cccs1` was tested. Which Potency did it give?
Its Potency is inconclusive: 35.5 µM [inhibitor, single point].

`CCOC(=O)CCCSc1nc2sc3c(c2c(=O)[nH]1)CCC3` was tested. Which Potency did it give?
Its Potency is inconclusive: 39.8 µM [inhibitor, partial curve].

How did the Potency turn out when `CC(C)(C)C1CCC(=NNc2nc3ccccc3[nH]2)CC1` (stereo not drawn) was run?
Its Potency is inconclusive: 25.1 µM [inhibitor, partial curve].

How did the Potency turn out when `CC(=O)Oc1cc2c(C(=O)NCCN3CCOCC3)c(C)oc2c2ccccc12` was run?
The Potency was inconclusive: 22.4 µM [inhibitor, partial curve, poor fit].

With `O=C(c1cc(-c2ccccc2)on1)N1CCCc2ccccc21` as the compound, how does the Potency read?
Its Potency is inconclusive: 12.6 µM [inhibitor, partial curve].

How did the Potency turn out when `CCCc1nn2c(=O)cc(COC(=O)c3cccc(NC(=O)COc4ccccc4C)c3)nc2s1` was run?
The Potency was inconclusive: 2.51 µM [inhibitor, full curve].

`Cc1ccc(Nc2nc(-c3sc(NC(=O)c4ccco4)nc3C)cs2)cc1` was tested. Which Potency did it give?
Its Potency is active: 3.98 µM.

With `CCOC(=O)c1cnc2ccc(C)cc2c1Sc1ccc(F)cc1` as the compound, how does the Potency read?
The Potency was inconclusive: 25.1 µM [inhibitor, partial curve].

How did the Potency turn out when `CCN(c1ccc2c(c1)OCO2)S(=O)(=O)c1cc(Br)cc2c1N(C(=O)C1CC1)CC2` was run?
The Potency was inconclusive: 25.1 µM [inhibitor, partial curve, poor fit].

With `CC/S(=N\S(=O)(=O)c1ccc(C)cc1)c1ccccc1` (stereo not drawn) as the compound, how does the Potency read?
Its Potency is “inactive”.

With `Cc1ccc(S(=O)(=O)Nc2ccc3nc(N)sc3c2)cc1` as the compound, how does the Potency read?
Its Potency is inconclusive: 17.8 µM [inhibitor, partial curve].

With `CN1/C(=C\C=N\O)C(C)(C)c2ccccc21` as the compound, how does the Potency read?
Its Potency is inconclusive: 20 µM [inhibitor, single point].

`CCN(CC)C(=O)CSC1=N/C(=C/c2ccco2)C(=O)N1c1ccc(OC)c(Cl)c1` was tested. Which Potency did it give?
The Potency was inconclusive: 31.6 µM [inhibitor, single point].

Which Potency does the source give for `COc1ccc2c(c1)C(C)CC(C)(C)N2C(=O)NC1CCCCC1` (stereo not drawn) here?
Its Potency is inconclusive: 11.2 µM [inhibitor, partial curve, poor fit].

For `CC(/C=C1\SC(=S)N(CC(=O)N2CCN(c3ccccc3)CC2)C1=O)=C\c1ccccc1`, which Potency is on record?
Its Potency is inconclusive: 4.47 µM [inhibitor, full curve].

For `COc1ccccc1N1CCN(c2ncc(C(=O)N3CCN(c4cccc(Cl)c4)CC3)c3ccccc23)CC1`, which Potency is on record?
Its Potency is inconclusive: 22.4 µM [inhibitor, partial curve].

`COc1cc(OC)c(NC(=O)C2CCCN(c3ncnc4c3nc3n4CCCCC3)C2)cc1Cl` (stereo not drawn) was tested. Which Potency did it give?
Its Potency is inconclusive: 22.4 µM [inhibitor, single point].

`CCC(=O)N1CCN(c2ccc(NC(=O)c3c(F)c(F)c(OC)c(F)c3F)cc2)CC1` was tested. Which Potency did it give?
Its Potency is inconclusive: 2 µM [inhibitor, full curve].

For `COc1ccc(-c2ccccc2[C@H]2[C@@H]3C=CC[C@@H](C)[C@@H]3C(=O)N2Cc2ccccc2)cc1`, which Potency is on record?
Its Potency is inconclusive: 7.94 µM [inhibitor, full curve, poor fit].

With `CCOC(=O)CN1C(=O)C(O)=C(C(C)=O)C1c1ccccc1` (stereo not drawn) as the compound, how does the Potency read?
The Potency was “inactive”.

Which Potency does the source give for `O=C(/C(=N/N=C/c1ccc(O)c(O)c1)c1ccccc1)c1ccccc1` here?
The Potency was inconclusive: 28.2 µM [inhibitor, partial curve].

For `C/C(CC(=O)Nc1ccccn1)=N\NC(=O)c1ccc2ccccc2c1`, which Potency is on record?
Its Potency is inconclusive: 10 µM [inhibitor, partial curve].

For `O=C(/C=C/c1ccc(O)cc1)c1ccc(O)cc1O`, which Potency is on record?
Its Potency is active: 11.2 µM and active: 7.94 µM and active: 10 µM.

With `Nc1nnc(SCCOc2ccc(Br)cc2)s1` as the compound, how does the Potency read?
Its Potency is inconclusive: 15.8 µM [inhibitor, partial curve, poor fit].

Which Potency does the source give for `COc1ccc([C@H]2[C@H]3C=CC[C@@H](C)[C@@H]3C(=O)N2Cc2ccccc2)cc1Cl` here?
The Potency was inconclusive: 39.8 µM [inhibitor, single point].

With `COC(=O)c1sccc1NC(=O)c1ccc(OC)cc1OC` as the compound, how does the Potency read?
Its Potency is inconclusive: 2.82 µM [inhibitor, full curve].

`COc1ccc(OC)c(/C=N/c2oc(-c3ccco3)c(-c3ccco3)c2C#N)c1` was tested. Which Potency did it give?
The Potency was inconclusive: 20 µM [inhibitor, partial curve].

With `Cc1ccc(C)c(OCC(O)CN2CCC(CN3C(=O)c4cccc5cccc(c45)C3=O)CC2)c1` (stereo not drawn) as the compound, how does the Potency read?
The Potency was inconclusive: 39.8 µM [inhibitor, single point].

Which Potency does the source give for `CC(C)CCNC(=O)c1nnc(Cc2ccc(Cl)cc2)o1` here?
Its Potency is “inactive”.

`Cc1ccnc2nc(C(=O)Nc3nc4ccccc4s3)nn12` was tested. Which Potency did it give?
Its Potency is inconclusive: 22.4 µM [inhibitor, partial curve, poor fit].

`CCOc1cc(/C=C2\CCCC(C(=O)C(F)(F)F)=C2O)ccc1O` was tested. Which Potency did it give?
Its Potency is inconclusive: 15.8 µM [inhibitor, partial curve].

For `COCCCNC(=O)c1oc2c(c1C)-c1nn(Cc3cccc(Cl)c3)cc1CC2`, which Potency is on record?
Its Potency is “inactive”.

For `CN(C(=O)COc1cc(=O)n(C)c2ccccc12)c1ccc(Br)cc1`, which Potency is on record?
Its Potency is “inactive”.

How did the Potency turn out when `COC(=O)C1=C(CS(=O)(=O)c2cc(Cl)ccc2OC)NC(=O)NC1c1ccccc1` (stereo not drawn) was run?
The Potency was “inactive”.

With `CC(=O)c1c(C)nc2nc(-c3ccccc3)nn2c1C` as the compound, how does the Potency read?
The Potency was “inactive”.

`Cc1ncc(CO)c(/C=N/NC(=S)Nc2ccc(C(C)C)cc2)c1O` was tested. Which Potency did it give?
Its Potency is inconclusive: 35.5 µM [inhibitor, single point].

`CC1=NN(c2nc(-c3ccccc3)cs2)C(=O)C1` was tested. Which Potency did it give?
Its Potency is inconclusive: 17.8 µM [inhibitor, partial curve].

`Cc1cc2ncn(CCCCOc3ccccc3)c2cc1C` was tested. Which Potency did it give?
The Potency was inconclusive: 39.8 µM [inhibitor, single point] and inconclusive: 31.6 µM [inhibitor, single point].

`C/C(=N\Nc1ccc(C(=O)O)cc1)c1ccc2c(c1)Nc1ccccc1S2` was tested. Which Potency did it give?
The Potency was active: 3.55 µM.

Which Potency does the source give for `COc1cc(/C=N/N=C2/NC(=O)C(Cc3ccccc3)S2)ccc1O` (stereo not drawn) here?
The Potency was inconclusive: 11.2 µM [inhibitor, partial curve].

`CC1CCN(CCNC(=O)C2CCCN(S(=O)(=O)c3cccc4nonc34)C2)CC1` (stereo not drawn) was tested. Which Potency did it give?
Its Potency is “inactive”.

For `NC(=O)c1ccc(N=C2C(=O)Nc3ccc([N+](=O)[O-])cc32)cc1`, which Potency is on record?
Its Potency is inconclusive: 15.8 µM [inhibitor, partial curve].
